Laboratory results reported in the RNAGym collection of RNA variant scans (doi:10.7554/elife.90254).
Read counts are not given, so values of variants with three or more changes are uncertain.

B1: OR4K15 (parent)
chain: GUUAACGGUCAUAGGCCAUGGAAACUAGGAGCACCAUUUCGCUGCCAGUGAAGAAAUGAACAAAGAAAAUCUGGGCCAGGCAGGCAUCAAAAGAAAUAGUCUUGCGCUCAACCAGAAAGUCUGUAAUCAUUUUAAGGGUA

Variants of: B1
Experiment: self-cleavage, relative activity (ratio to wild type); higher = more cleavage; in vitro, sequencing; the parent is a self-cleaving ribozyme

Row | Variant | self-cleavage
1 | GUUAACGGUCAUAGGCCAAGGAAGCUAGGAGCACCAUUUCGCUGCCAGUGAAGAAAUGAACAAAGAAAAUCUGGGCCAGGCAGGCAUCAAAAGAAAUAGUCUUGCGCUCAACCAGAAAGUCUGUAAUCAUUUUAAGUGUA [U19A A24G G137U] | 1.3
2 | GUUAACGGUCAUAGGCCAAGGAAACUAGGAGCACCUUUUCGCUGCCAGUGAAGAAAUGAACAAAGGAAAUCUGGGCCAGGCAGGCAUCAAAAGAAAUAGUCUUGCGCUCAACCAGAAAGUCUGUAAUCAUUUUAAGGGUA [U19A A36U A66G] | 1.74
3 | GUUAACGGUCAUAGGCCAAGGAAACUAGGAGCGCCACUUCGCUGCCAGUGAAGAAAUGAACAAAGAAAAUCUGGGCCAGGCAGGCAUCAAAAGAAAUAGUCUAGCGCUCAACCAGAAAGUCUGUAAUCAUUUUAAGGGUA [U19A A33G U37C U103A] | 0.28
4 | GUUAACGGUCAUAGGCCAAGGAAACUAGGGGCACCAUUUCGCUGCCAGUGAAGAAAUGGACAAAGAGAAUCUGGGCCAGGCAGGCAUCAAAAGAAAUAGUCUUGCGCUCAACCAGAGAGUCUGUAACCAUUUUAAGGGUA [U19A A30G A59G A67G A117G U127C] | 1.04
5 | GUUAACGGUCAUAGGCCAAGGAGACUAGGAGCACCACUUCGCUGCCAGUGAAGAAAUGAACAAGGAAAAUCUGGGCCAGGCAGGCAUCAAAAGAAAUAGUCUUGCGCUCAACCAGAAAGUCUGUAGUCUUUUUAAGGGUA [U19A A23G U37C A64G A126G A129U] | 0.57
6 | GUUAACGGUCAUAGGCCAAGGAAACUAGGAGCACCCUUUCGCUGCCAGUGAAGAAAUGCACAAAGAAAAUCUGGGCCAGGCAGGCACCAAAAGAAAUAGUCUUGCGCUCAACCAGAAAGUCUGUAAUCAUUUUAAGGGUA [U19A A36C A59C U87C] | 1.42
7 | GUUAACGGUCAUAGGCCAAGGAGACUAGGAGCACCAUUUCGCUGCCAGUGGAGAAAUGAACAAAGAAAAUCUGGGCCAGGCAGGCAUCAAAAGAAAUAGUCUUGCGCUCAACCAGAAAGUCUGUAAUCAUUUUAAGGGUG [U19A A23G A51G A140G] | 1.26
8 | GUUAACGGUCAUAGGCCAAGGAAACUAGGAGCACCGUCUCGCUGCCAGUGAAGAAAUGAGCAAAGAAAAUCUGGGCCAGGCAGGCAUCAAAAGAAAUAGUCUUGCGAUCAACCAGAAAGUCUGUAAUCAUUUUAAGGGUA [U19A A36G U38C A60G C107A] | 0.05
9 | GUUAACGGUCAUAGGCCAAGGAAACUAGGAGCGCCAUUUCGCUGCCAGUGAAGAAAUGAACAAAGAAAAUCUGGGCCAGGCAGGCAUCAAAAGAAAUAGUCUUGCGCUCAACCAGGAAGUCUGUAAUCAUUUUAAGGGUA [U19A A33G A116G] | 0.38
10 | GUUAACGGUCAUAGGCCAAGGAAACUAGGAGCACCAUUUCGCUGCCUGCGAAGAAAUGAACAAAGAAAAUCUGGGCCAGGCAGGCGUCAAAUGAAAUAGUCUUGCGCUCAACCAGAAAGUCUGUAAUCAUUUUAAGGGUA [U19A A47U U49C A86G A92U] | 0.81
11 | GUUAACGGUCAUAGGCCAAGGAAACUAGGGGCACCAUUUCGCUGCCAGUGGAGAAAUGAACAAAGAAAAUCUGGGCCAGGCAGGCAUCAAAAGAAAUAGUCUUGCGCUCAACCAGAAAGUCUGUAAUCAUUCUAAGGGUA [U19A A30G A51G U132C] | 1.45
12 | GUUAACGGUCAUAGGCCAAGGAAACUAGGUGCACCAUUUCGCUGCCAGUGAAGAAAUGAACAAAGAAAAUCUGGGCCAGGCAGGCAUCAAAAGAAAUAGUCUUGCGCUCAACCAGAAAGUCCGUAAUCAUUUUAAGGGUA [U19A A30U U122C] | 1.06
13 | GUUAACGGUCAUAGGCCAAGGAGACUAGGAGCACCAUUUCGCUGCCAGUGAAGAAAUGAACAAAGAAAAUCUGGGCCAGGCUGGCAUCAAAAGAAAUAGUCUGGCGCUCAACCAGAAAGUCUGUAAUCAUUUUAAGGGUA [U19A A23G A82U U103G] | 0.07
14 | GUUAACGGUCAUAGGCCAAGGAAGCUAGGAGCACCAUUUCGCUGCCAGUGAAGAAAUGAGUAAAGGAAAUCUGGGCCAGGCAGGCAUCAAAAGAAAUAGUCUCGCGCUCAACCAGAAAGUCUGUAAUCAUUUUAAGGGUA [U19A A24G A60G C61U A66G U103C] | 0.76
15 | GUUAACGGUCAUAGGCCAAGGAAGCUGGGAGCACCAUUUCGCUGCCAGUGAAGAAAUGAACAAAGAAAAUCUGGGUCAGGCAGGCAUCAAAAGAGAUAGUCUUGCGCUCAACCAGAAAGUCUGUAAUCAUUUUAAGGGUA [U19A A24G A27G C76U A95G] | 0.07
16 | GUUAACGGUCAUAGGCCAAGGAAACUAGGGGCACCAUUUCGCUGCCAGUGAAGAAAUGAACAAAGAAAAUCUGGGCCAGGCAGGCAUCAAGAGAAAUAGUCCUGCGCCCAACCAGAAAGUCUGUAAUCAUUUUAAGGGUA [U19A A30G A91G U102C U108C] | 0.05
17 | GUUAACGGUCAUAGGCCAAGGGAACUAGGAGCACCAUUUCGCUGCCAGUGAAGAAAUGAACAAAGAAAAUCUGGGCCAGGCAGGCAUCAAAAGAAAUAGUCUUGCGCUCAACCAGAAAGUCUGUGAUCAUUUUAAGGGUA [U19A A22G A125G] | 0.52
18 | GUUAACGGUCAUAGGCCAAGGUAACUAGGAGCACCAUUUCGCAGCCAGAGAAGAAAUGAACAAAGAGAAUCUGGGCCAGGCAGGCAUCAAAAGAAAUAGUCUUGCGCUCAACCAGAAAGUCUGUAAUCAUUUUAAGGGUA [U19A A22U U43A U49A A67G] | 0.68
19 | GUUAACGGUCAUAGGCCAAGGAAGCUAGGAGCUCCAUUUCGCUGCCAGUGAAGAAAUGAGCAAAGAACAUCUGGGCCAGGCAGGCAUCAAAAGAAAUAGUCUUGCGCUCAACCAGAAAGUCUGUAAUCAUUUUAAGGGUA [U19A A24G A33U A60G A68C] | 0.2
20 | GUUAACGGUCAUAGGCCAAGGAAACUAGGGGCACCAUUUCGCUGCCAGCGAAGAAAUGAACAAAGAAAAUCUGGGCCAGGCAGGCAUCAAAAGAAAUAGUCUUGCGCUCUACCAGAAAGUCUGUAAUCAUUUUAAGGGUA [U19A A30G U49C A110U] | 0.92
21 | GUUAACGGUCAUAGGCCAAGGAAGCUAGGUGCACCAUUUCGCUGCCAGAGAAGAAAUGAACAAAGAAAAUCUGGGCCAGGCAGGCAUCAAAAGAAAUAGUCUUGCGCUCAACCAGAUAGUCUGUAAUCAUUUUAAGGGUA [U19A A24G A30U U49A A117U] | 0.78
